Article PMC4336329 (PLoS ONE, 2015)
Out of some 310,000 compounds screened, about 2,200 (0.71%) showed an effect of 50% or more. Effects have a minus sign here. The list shows a part of the results.

Each compound was assayed against human ether-à-go-go-related gene (hERG) potassium channel (human, UniProt Q12809) (assay: primary screen, population patch clamp on CHO cells stably expressing hERG).
human ether-à-go-go-related gene (hERG) potassium channel, sequence (Q12809 whole entry, looked up): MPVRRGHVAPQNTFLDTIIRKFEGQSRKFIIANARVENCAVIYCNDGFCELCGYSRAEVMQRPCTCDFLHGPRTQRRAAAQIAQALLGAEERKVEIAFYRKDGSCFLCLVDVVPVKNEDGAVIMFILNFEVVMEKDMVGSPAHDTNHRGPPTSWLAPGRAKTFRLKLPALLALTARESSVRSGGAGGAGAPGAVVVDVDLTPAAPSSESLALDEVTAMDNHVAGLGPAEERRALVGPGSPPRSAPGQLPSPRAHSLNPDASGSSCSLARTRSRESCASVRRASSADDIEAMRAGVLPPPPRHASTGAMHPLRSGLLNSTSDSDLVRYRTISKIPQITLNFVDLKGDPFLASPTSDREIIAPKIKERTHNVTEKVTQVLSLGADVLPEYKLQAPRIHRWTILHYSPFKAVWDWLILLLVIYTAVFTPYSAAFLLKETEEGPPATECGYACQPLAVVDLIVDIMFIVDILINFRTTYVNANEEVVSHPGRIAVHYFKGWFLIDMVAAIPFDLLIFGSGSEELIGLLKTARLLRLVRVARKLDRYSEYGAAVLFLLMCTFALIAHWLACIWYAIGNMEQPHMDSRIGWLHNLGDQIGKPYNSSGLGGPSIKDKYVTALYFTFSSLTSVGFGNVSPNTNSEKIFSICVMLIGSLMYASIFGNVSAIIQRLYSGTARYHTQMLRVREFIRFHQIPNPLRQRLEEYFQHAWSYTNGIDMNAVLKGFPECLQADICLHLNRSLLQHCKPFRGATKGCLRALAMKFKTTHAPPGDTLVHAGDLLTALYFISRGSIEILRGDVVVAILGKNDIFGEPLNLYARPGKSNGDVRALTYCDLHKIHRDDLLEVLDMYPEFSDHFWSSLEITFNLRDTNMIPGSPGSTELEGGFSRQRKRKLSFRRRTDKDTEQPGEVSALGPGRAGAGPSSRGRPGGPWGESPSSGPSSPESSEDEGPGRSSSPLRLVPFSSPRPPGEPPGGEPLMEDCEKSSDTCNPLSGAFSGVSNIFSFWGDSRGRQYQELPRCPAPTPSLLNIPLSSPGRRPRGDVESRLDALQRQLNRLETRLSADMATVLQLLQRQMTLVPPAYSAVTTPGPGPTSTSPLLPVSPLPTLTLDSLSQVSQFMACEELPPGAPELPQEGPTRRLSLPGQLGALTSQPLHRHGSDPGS

Compound | hERG current change (%, negative = inhibition) at 1uM
NC(=O)c1c(NC(=O)C2CCCO2)sc2c1CCCCC2 (stereo not shown) | 11.8%
COc1ccc(NC(=O)Cn2ncn3c(cc4ccccc43)c2=O)c(OC)c1OC | 15.4%
O=C(NC1CCC(O)CC1)c1ccc(-c2ccc([N+](=O)[O-])cc2)o1 (stereo not shown) | -34%
Cc1ccc(NC(=S)N/N=C2\CC3CC=CC23)c(C)c1 (stereo not shown) | 14.7%
O=C(c1ccccc1Oc1ccccc1)N1CCN(c2ccccc2)CC1 | -1.64%
COc1ccc(CC(=O)O/N=C(\N)c2ccc(C)cc2)cc1 | 5.13%
Cc1ccsc1-c1n[nH]c(=S)n1CC(C)C | 11.3%
OC1CCN(c2c3c(nc4cc(-c5ccc(F)cc5)nn24)CCC3)CC1 | 14.7%
COc1ccc(CN(C)C(=O)CNC(=O)CNC(=O)c2ccc(Cl)cc2Cl)cc1F | -2.38%
COc1ccc(C2C(C(=O)c3ccco3)=C(O)C(=O)N2CCN2CCOCC2)cc1 (stereo not shown) | 6.69%
O=C(O)CCC(=O)NCC(=O)c1ccc(F)cc1 | 9.05%
C=CC[N+]1(CC=C)CCOCC1.[Br-] | 34.2%
CCOC(=O)C1CCCN(C(=O)c2cccc(S(=O)(=O)N3CCOCC3)c2)C1 (stereo not shown) | 10%
CN(C)c1nc(NCc2ccccc2)nc(Oc2ccc(=O)[nH]n2)n1 | 7.5%
Nc1ccccc1Nc1cc(-c2cccc(Cl)c2)nn1-c1ccccc1 | 8.16%
CSc1ccccc1NC(=O)c1cnccn1 | 19%
CCN(CC(=O)NCc1ccc(Cl)cc1)C(=O)COc1cccc(Cl)c1 | -25.1%
COc1ccc(C(C(O)C(=O)c2c[nH]c3ccccc23)N2CCN(c3ccccc3)CC2)cc1 (stereo not shown) | 4.75%
COc1ccc(N2CCN(C(=O)CCCCCn3c(=O)[nH]c4ccsc4c3=O)CC2)cc1 | -8.68%
O=S1(=O)CC=C(CSC(=S)NC2CCS(=O)(=O)C2)C1 (stereo not shown) | 16.6%
Cn1c(=O)c(C(=O)CN2CC(=O)Nc3ccccc32)c(N)n(Cc2ccccc2)c1=O | 10.8%
CC(NC(=O)C(=O)NCCCn1ccnc1)c1ccccc1 (stereo not shown) | 19.7%

Compound | hERG current change (%, negative = inhibition) at 1uM
CN(C)C(=O)CSc1nnc(Cc2ccc([N+](=O)[O-])cc2)o1 | -1.73%
COc1ccc(N2CCN(S(=O)(=O)/C=C/c3ccccc3)CC2)cc1 | 8.05%
O=C(NCCc1ccc(Cl)cc1)c1cccs1 | 5.24%
CC(=O)N1CCN(c2ccc(NCc3ccc(C)s3)cc2)CC1.Cl | 9.64%
COc1ccc(CCNC(=S)Nc2ccc(S(=O)(=O)Nc3ncccn3)cc2)cc1OC | 19.5%
CC(=O)Nc1ccc(C(=O)NN2C(=O)NC3(CCCCC3)C2=O)cc1 | -1.05%
COc1cccc(C2CC(c3ccc(Br)cc3)=NN2C(=O)c2ccncc2)c1OC (stereo not shown) | -4.94%
COCCNC(=O)CSc1ccc(Cl)cc1 | 11.4%
O=C1c2oc3ccc(Cl)cc3c(=O)c2C(c2cccc(Br)c2)N1CCO (stereo not shown) | 0.327%
CC1(C)C=C2C(=NN(c3ccccc3)C(N)=C2C#N)CO1 | 11.8%
CC1CCN(S(=O)(=O)c2ccc(NC(=O)C3CCN(C(=O)c4ccco4)CC3)cc2)CC1 | 4.13%
CCC(C)(C)NC(=O)C(NS(=O)(=O)c1cccs1)c1ccccc1 (stereo not shown) | 13.9%
COc1ccc(OC)c(-c2csc(NC(=O)COC(=O)C3CC3)n2)c1 | 0.213%
COc1ccc(C(=O)N2CCCC(CCC(=O)NCc3ccc(F)c(F)c3)C2)cc1F (stereo not shown) | 0.257%
O=C(CCNS(=O)(=O)c1cccc2nsnc12)NCCC1=CCCCC1 | 9.06%
Cc1cc(C)cc(NC(=O)CN2C(=O)C3CC=CCC3C2=O)c1 (stereo not shown) | 9.57%
Cc1ccccc1CSc1nnc2ccc(-c3ccncc3)nn12 | 4.83%
Cn1cccc1Cc1nnc(SCC(=O)NCc2ccco2)n1CCc1ccccc1 | 1.13%
S=C(NCc1ccc(Cl)cc1)NC1CCCCC1 | 9.06%
COc1cccc(CCc2nnc(CCC(=O)NC(C)Cc3cccs3)o2)c1 (stereo not shown) | 6.48%
CCOc1ccc(N(C)S(=O)(=O)c2ccc3[nH]cc(C(=O)NCC4CCCO4)c(=O)c3c2)cc1 (stereo not shown) | 16.1%
CCNc1ccc(S(=O)(=O)NCCN(C)C)cc1[N+](=O)[O-] | -1.41%

Compound | hERG current change (%, negative = inhibition) at 1uM
COc1cccc(CN(C)CC(=O)NCc2ccc(F)cc2)c1OC | 11.7%
CN(C(=O)CN1C(=O)C2C3CC(C(Br)C3Br)C2C1=O)C1CCCCC1 (stereo not shown) | 5.39%
COc1ccc(C(=O)NN2CC(O)=C(c3nc4ccccc4n3C)C2=N)cc1OC | -3.87%
Cc1ccccc1NC(=O)CCn1c(=O)oc2ccccc21 | 2.76%
CCOc1ccccc1NC(=O)CSc1nnc(CCC(=O)Nc2ccccc2F)n1C | -2.14%
O=C(c1ccc2ccccc2c1)N1CCN(c2ccc(C(F)(F)F)cn2)CC1 | 2.21%
O=C(Cc1ncon1)Nc1ccc(F)c(F)c1F | 9.28%
COc1ccc2[nH]c(=O)c(CN(Cc3ccco3)C(=O)c3ccccc3)cc2c1 | 2.57%
O=S(=O)(c1ccc(SCc2ccccc2)nc1)N1CCCC1 | 0.479%
CCCn1cc(CN2CCC(n3nccc3NC(=O)C(OC)c3ccccc3)CC2)c(C)n1 (stereo not shown) | 0.452%
Cc1ccc2oc(C(=O)N3CCN(Cc4ncccc4C)CC3)c(C)c2c1 | -11.1%
CC(=O)Nc1ccc(NC(=O)C(C)OC(=O)CCC2CCCC2)cc1 (stereo not shown) | -5.53%
Cc1ccc(NC(=O)COc2ccc(/C=C3/NC(=O)NC3=O)cc2)cc1 | -6.68%
COc1cc(C)ccc1NC(=O)c1ccc(S(=O)(=O)N2CCOCC2)cc1 | 6.12%
Cc1ccccc1N(C(=O)Cn1nnc(-c2cccs2)n1)C(C(=O)NCCC(C)C)c1ccco1 (stereo not shown) | -12.8%
COc1ccc(CN2CCC(CO)(Cc3cccc(C(F)(F)F)c3)CC2)cc1Cn1cccn1 | -35.3%
Cc1ccc2cc(CN(Cc3ccco3)C(=S)NCC3CCCO3)c(=O)[nH]c2c1C (stereo not shown) | -7.41%
O=C(NCCF)[C@H]1C[C@@H]1[C@H](NP(=O)(c1ccccc1)c1ccccc1)c1ccccc1 | 9.1%
CN(Cc1ccccc1)C(=O)CC(c1ccccc1)c1cc(Cl)ccc1O (stereo not shown) | -2.12%
COC(=O)c1cc(C(=O)OCC(=O)Nc2cc(C)on2)cc([N+](=O)[O-])c1 | 16.2%
CSCC(C)N1CCC(Oc2cccc(C(=O)NCc3ccccn3)c2)CC1 (stereo not shown) | 10%
Cc1ccc(-c2c(C)n([O-])c3c([n+]2=O)CCCCC3)o1 | 15.9%

Compound | hERG current change (%, negative = inhibition) at 1uM
COc1ccc(C(CNC(=O)c2cc3ccccc3cc2OC)N2CCCC2)cc1 (stereo not shown) | -31.7%
Cc1ccccc1-c1ccc(=O)n(CC(=O)Nc2ccc(N3CCOCC3)cc2)n1 | 11.3%
O=C(CSc1nc2ccc(Cl)cc2[nH]1)c1c[nH]c2ccccc12 | 9.13%
OCCNc1nc(Nc2ccc(Cl)cc2)nc(N2CCCC2)n1 | -1.16%
COc1cccc(OC)c1C(=O)Nc1c(C)n(C)n(-c2ccccc2)c1=O | 4.69%
O=C1OCC(CO)(CO)N=C1NNc1cc(Cl)ccc1Cl | 10.3%
CC(=O)c1ccc(NCCC(=O)c2ccccc2)cc1 | -3.1%
CCN(CCNC(=O)C1CC(=O)N(CCc2ccccc2)C1)c1ccccc1 (stereo not shown) | 12.2%
O=C(O)C1(P(=O)(c2ccc(Cl)cc2)c2ccc(Cl)cc2)CC1 | 14.9%
Cc1occc1C(=O)N/N=C/c1ccccc1[N+](=O)[O-] | 6.4%
C=CCOC(=O)C(C#N)c1nc2ccccc2nc1N1CCN(c2ccccc2OCC)CC1 (stereo not shown) | 9.93%
O=[N+]([O-])c1ccccc1/C=N/NC1=NS(=O)(=O)c2ccccc21 | -7.86%
O=C(Nc1ccccc1)C1CCN(c2nccs2)CC1 | 3.99%
CCc1ccc(C2C(C#N)=C(N)N(N(C)C)C3=C2C(=O)CCC3)cc1 (stereo not shown) | 4.73%
CCOC(=O)NC1(Nc2ccc(C)cc2)Oc2ccccc2O1 | 10.5%
Cc1cccc(OCCOC(=O)Nc2ccccc2)c1 | 20.7%
COc1ccccc1NC(=O)CCC(=O)OCc1ccc(Br)cc1 | -4.11%
COc1ccc(N(CC(=O)NCCSc2ccccn2)S(=O)(=O)c2ccccc2)c(OC)c1 | 14.3%
O=[N+]([O-])c1cc2cccnc2c2ncccc12 | 18.6%
NC(=O)OCC(COC(N)=O)c1ccccc1 | 19.1%
O=C(O)c1ccc(S(=O)(=O)c2ccc3c(c2)C(=O)N(Cc2ccco2)C3=O)cc1 | -2.4%
Cc1c(Cl)cccc1Nc1ncccc1C(=O)OCC(O)CO (stereo not shown) | 10.8%
